Data: publication PMC4336329 (PLoS ONE, 2015)
Among all 310,000 compounds or so, about 2,200 (0.71%) showed an effect of 50% or more. Effects have a minus sign here. Some of the results follow.

Each compound was assayed against human ether-à-go-go-related gene (hERG) potassium channel (human, UniProt Q12809) (assay: primary screen, population patch clamp on CHO cells stably expressing hERG).
Chain of human ether-à-go-go-related gene (hERG) potassium channel (Q12809 whole entry, looked up): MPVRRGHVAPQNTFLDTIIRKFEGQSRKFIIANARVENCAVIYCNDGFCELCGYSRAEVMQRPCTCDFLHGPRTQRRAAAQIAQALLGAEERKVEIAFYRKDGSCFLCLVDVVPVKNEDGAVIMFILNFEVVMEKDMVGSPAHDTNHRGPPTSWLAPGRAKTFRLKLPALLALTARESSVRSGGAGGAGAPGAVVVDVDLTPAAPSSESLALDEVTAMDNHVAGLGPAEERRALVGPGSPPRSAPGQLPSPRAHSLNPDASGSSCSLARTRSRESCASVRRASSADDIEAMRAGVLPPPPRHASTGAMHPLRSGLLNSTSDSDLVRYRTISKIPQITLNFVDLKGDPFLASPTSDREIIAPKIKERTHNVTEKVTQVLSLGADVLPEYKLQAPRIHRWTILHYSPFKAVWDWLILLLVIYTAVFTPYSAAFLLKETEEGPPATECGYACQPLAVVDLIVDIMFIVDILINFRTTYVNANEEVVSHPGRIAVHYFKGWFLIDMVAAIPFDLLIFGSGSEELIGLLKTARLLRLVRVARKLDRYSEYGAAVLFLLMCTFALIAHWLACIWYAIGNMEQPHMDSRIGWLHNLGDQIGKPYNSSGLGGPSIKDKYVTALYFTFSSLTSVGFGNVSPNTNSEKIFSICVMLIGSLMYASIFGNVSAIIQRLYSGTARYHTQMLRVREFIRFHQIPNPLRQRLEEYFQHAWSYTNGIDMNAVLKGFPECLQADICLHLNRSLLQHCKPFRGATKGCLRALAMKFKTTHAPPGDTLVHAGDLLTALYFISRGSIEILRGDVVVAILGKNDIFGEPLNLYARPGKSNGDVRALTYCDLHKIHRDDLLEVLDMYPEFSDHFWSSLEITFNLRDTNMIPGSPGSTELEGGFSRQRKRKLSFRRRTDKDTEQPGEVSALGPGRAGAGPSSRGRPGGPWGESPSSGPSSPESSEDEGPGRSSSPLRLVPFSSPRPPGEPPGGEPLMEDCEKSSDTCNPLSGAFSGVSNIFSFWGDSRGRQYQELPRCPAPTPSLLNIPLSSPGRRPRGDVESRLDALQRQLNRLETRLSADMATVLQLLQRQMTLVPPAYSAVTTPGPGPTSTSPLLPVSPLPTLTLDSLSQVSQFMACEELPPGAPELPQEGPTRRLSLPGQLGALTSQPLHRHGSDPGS

SMILES	hERG current change (%, negative = inhibition) at 1uM [%]
COc1cccc(C(=O)CSc2nnnn2C)c1	9.2
Cc1cccc(C)c1OCC(=O)NC(Cc1c[nH]c2ccccc12)C(=O)O (centres unmarked)	10.3
Cc1csc(NC(=O)Cc2ccc(Br)cc2)n1	12
CCCCN(C)CCCNC(=O)C1CCC(CNS(=O)(=O)c2c(C)cc(C)cc2C)CC1 (centres unmarked)	-76.3
OC(c1ccccc1)(c1ccccc1)C1CCN(C(=S)NCCc2ccccc2)CC1	13.9
O=C(NC1(C(F)(F)F)Oc2ccc(Cl)cc2O1)N1CCC2(CC1)OCCO2 (centres unmarked)	15.3
COc1ccc(C(CCNCc2ccc(OC(C)C)cc2)c2ccccc2OC)cc1 (centres unmarked)	-24.2
CCn1c(=N)n(CCOc2ccc(OC)cc2)c2ccccc21	-25.5
O=C(CCN1C(=O)S/C(=C\c2ccc(F)cc2)C1=O)Nc1ccc(O)cc1C(=O)O	13.6
Cc1nnsc1C(=O)Nc1ccccc1	16.3
CCC(=O)Nc1ccc(C(=O)NNC(=O)c2ccc(C)cc2)cc1	10.9
Fc1ccc2c(c1)[C@H]1OCC[C@H]1[C@@H](c1ccco1)N2	13.1
COCCCNC(=O)C(=O)Nc1cc2c3c(c1)CCN3C(=O)CC2	21.5
Cc1c(Cl)c([N+](=O)[O-])nn1CCCC(=O)Nc1cc(Oc2ccccc2)cc([N+](=O)[O-])c1	1.66
O=C(COC(=O)c1cccc(-n2cnnn2)c1)Nc1c(Cl)cccc1C(F)(F)F	20.9
Nn1c(SCC(=O)Nc2ccc3c(c2)OCCO3)nncc1=O	16.4
CCC(C)C(NC(=O)C1CCC(C)CC1)C(=O)Nc1ccc(OC)cc1 (centres unmarked)	11
COc1ccc(CC(=O)OCC(=O)Nc2ccc(Cl)c(S(=O)(=O)N(C)C)c2)cc1	18.3
O=C(O)c1cccc(NC(=S)N/N=C/c2cccc(O)c2)c1	3.83
CCOC(=O)c1c(S(=O)(=O)NCC(=O)NCc2cccc(C)c2)c(C)n(C)c1C	11.7
Cc1cccc(N2CCN(C(=O)CCNS(=O)(=O)c3cccs3)CC2C)c1 (centres unmarked)	15
O=[N+]([O-])c1cc(Br)c(OCc2nnc(-c3ccccc3)o2)c(Br)c1	4.33

SMILES	hERG current change (%, negative = inhibition) at 1uM [%]
CCC(C)n1cnc2c(c1=O)c1nc3ccccc3nc1n2Cc1ccc(OC)cc1 (centres unmarked)	6.21
Cc1ccc(N(C)C(=O)CCS(=O)(=O)c2ccc3c(c2)oc(=O)n3C)cc1	10.7
Cc1cc2c(cc1S(=O)(=O)NCc1ccccc1Cl)OCCN2C	9.58
Cc1ccc(NC(=O)C(C)Sc2nc(=O)cc(N)n2-c2ccccc2)cc1 (centres unmarked)	8
O=C(Nc1nnc(C2=COCCO2)o1)c1ccc(S(=O)(=O)N2CCCC2)cc1	16.6
CSc1nc(N)n(-c2cc(C(F)(F)F)ccn2)n1	3.77
Cc1cc(C)nc(N/N=C/c2ccccc2OCc2ccc([N+](=O)[O-])cc2)n1	-5.89
N#Cc1c2ccc([N+](=O)[O-])cc2[n+]([O-])n1-c1ccccc1	11.9
O=C(NC1CCCCC1)N1CCN(Cc2ccco2)CC1	13.9
O=C(c1cccc(C(=O)N2CCN(c3ccccc3F)CC2)n1)N1CCN(c2ccccc2F)CC1	-4.02
C#CC(C)(C)NC(=S)NC1CC2C=CC1C2 (centres unmarked)	9.9
O=C(CSc1nnc(NC(=O)c2ccco2)s1)Nc1ccccc1	7.17
O=c1c(Cl)c(NCC2CCCO2)cnn1C12CC3CC(CC(C3)C1)C2 (centres unmarked)	12.3
Cc1cccc(Nc2c([N+](=O)[O-])cc(C(=O)N3CC(=O)Nc4ccccc43)cc2[N+](=O)[O-])c1	11.8
Cc1ccc(S(=O)(=O)c2c(C)cc(-c3ccccc3)[nH]c2=O)cc1	6.69
COc1ccc(CC(=O)NCCS(=O)(=O)N2CCN(c3ccc(F)cc3)CC2)cc1OC	-6.87
O=C1/C(=C/Nc2ccc3c(c2)OCO3)CCc2ccccc21	6.73
COc1ccc(CN2CCN(CC3CC3)CC2CCO)cc1C (centres unmarked)	12.4
CCC(c1nnnn1C(C)(C)C)N1CCN(c2cc(Cl)ccc2C)CC1 (centres unmarked)	-3.8
O=C(NNS(=O)(=O)c1ccccc1F)c1cc(-c2ccccc2)n[nH]1	4.3
COc1ccc(Cn2c(=O)[nH]c3cc(C(=O)Nc4ccccc4C)ccc32)cc1	10.1
N#CCCn1c(SCC(=O)NCc2ccco2)nc2ccccc21	1.13

SMILES	hERG current change (%, negative = inhibition) at 1uM [%]
O=C(NC(=S)Nc1cccc(Cl)c1Cl)C1CC1	7.61
O=C(O)c1c(NC(=O)c2cccc3ccccc23)sc2c1CCC2	8.88
CCc1ccc(NC(=O)c2noc(C(C)C)c2[N+](=O)[O-])cc1	8.97
COc1ccc(-n2nc(C(=O)NCC(=O)N3CCC4(CC3)OCCO4)c3ccccc3c2=O)cc1Cl	7.93
COc1ccc(NC(=O)C2C3CCC(O3)C2C(=O)O)c(C)c1 (centres unmarked)	12
CC(C)CN1CCN(Cc2ccc(Oc3ncccn3)cc2)CC1CCO (centres unmarked)	-3.25
Cc1cc(C)cc(OCc2nnc(N)s2)c1	10.3
COc1cc(OC)c(OC)cc1CN1CCN(Cc2ccc(SC)cc2)CC1.O=C(O)C(=O)O	-9.66
COc1cccc(-c2ccc(C#N)c(SCC(=O)NCc3ccco3)n2)c1	2.49
O=C(O)c1ccc(/C=N/NC(=S)NCc2ccccc2)cc1	15.5
O=C(Cn1c2ccccc2c(=O)c2ccccc21)N/N=C/c1ccc(N2CCCC2)c([N+](=O)[O-])c1	13.2
O=[N+]([O-])c1ccccc1/C=C/C=N/Nc1ccc(S(=O)(=O)Nc2ccc(Cl)cc2)cc1[N+](=O)[O-]	12.9
CCOC(=O)N1CCN(c2c(N3CCN(c4cccc(C(F)(F)F)c4)CC3)c(=O)c2=O)CC1	-3.04
COc1ccc(CNC(=O)c2oc3ccc(S(=O)(=O)N4CCOCC4)cc3c2C)cc1	16.8
CC(=O)Nc1ccc(S(=O)(=O)N2CCN(C(=O)N3CCCCC3)CC2)cc1	15.8
CCCCCCCc1c(C)nc(N2CCOCC2)[nH]c1=O	-6.06
OC12Oc3ccccc3C=C1N1CCC2CC1 (centres unmarked)	3.5
COCCN1C=C2C(=O)C(C)(OC(=O)CCC(=O)OC)C(=O)C(Br)=C2C=C1c1ccc(OC)cc1 (centres unmarked)	13.4
COc1ccccc1CN(C)C(=O)c1cccc(S(=O)(=O)N2CCN(Cc3ccccc3)CC2)c1	-1.77
Cc1cccc(C)c1NC(=O)C1NC(=O)CC1c1ccccc1 (centres unmarked)	2.92
O=c1c2ccccc2nnn1Cc1ccccc1	34.9
CC(OC(=O)CNC(=O)c1ccc(Cl)c([N+](=O)[O-])c1)C(=O)NCc1ccco1 (centres unmarked)	0.467

SMILES	hERG current change (%, negative = inhibition) at 1uM [%]
CCN(CC)C(=O)CSc1nc2c(c(-c3cccnc3)c1C#N)CCCC2	4.97
CC1(C)CC(NC(=O)C2CCN(S(=O)(=O)c3ccccc3C(F)(F)F)CC2)CC(C)(C)N1	11.1
O=C1NCCN/C1=C\C(=O)c1ccc(Br)cc1	10.7
C/C=C\C=C\C(=O)Nc1cccc(C2=NOC3(C2)C[C@@H](C(N)=O)N(C(=O)C(c2ccccc2)c2ccccc2)C3)c1 (some centres unmarked)	11.2
Cc1nc2nc3c(cn2n1)C(=O)CCC3	-2.94
O=C(NCc1ccccc1Cl)C(=O)NCC1OCCN1S(=O)(=O)c1ccc(F)cc1 (centres unmarked)	9.53
C=CCn1c(SCn2nnc3ccccc3c2=O)nnc1-c1ccc(Br)cc1	-11.2
COc1cccc(/C=C2\SC(=S)N(CCC(=O)NNC(=O)c3ccccc3OC)C2=O)c1	14.8
Cc1cc(NC(=O)C2CC(c3ccc(F)cc3)=NO2)no1 (centres unmarked)	5.41
Cc1cccc(CN2C(=O)NC(c3ccccc3)(c3ccccc3)C2=O)c1	2.22
Cc1[nH]c(C)c(S(=O)(=O)NCc2ccc(OC(C)C)cc2)c1C(=O)N1CCCC1	13
CC(C)(C)c1csc(N/N=C/c2ccc(O)cc2)n1	14.6
CCN(CC)C(=O)c1c([N+](=O)[O-])c(C(C)(C)C)nn1C	11.9
CCc1ccc(/C=N/NC(=O)c2ccccn2)cc1	4.99
CC(=O)c1ccc(Oc2cc(C)nc(N3CCOCC3)n2)cc1	7.85
O=C(N1CCN(CCO)CC1)N1c2ccccc2C=Cc2ccccc21	13
O=C1CCCC(=O)N1c1ccc(N2CCN(c3ccccc3)CC2)c([N+](=O)[O-])c1	13.6
Cc1cc(Nc2ccc(F)cc2)n2nc(C)nc2n1	-6.92
CC(C(=O)N1CC2(C)CC1CC(C)(C)C2)N1C(=O)c2ccccc2C1=O (centres unmarked)	12.8
COc1ccccc1N1CCN(C(=O)/C=C/c2ccc3c(c2)OCO3)CC1	8.32
